# Results: PubChem BioAssay AID686979 (National Center for Advancing Translational Sciences (NCATS), 2013)
# Among all 420,000 compounds or so, about 50,000 (12%) were called active. This list was built around the results that the source calls inconclusive (neither active nor inactive); the mix of calls is not that of the screen. Calls come from the whole dose curve; as a rule, active = well fitted inhibition curve with a large enough effect; inconclusive = small, poorly fitted or top-dose-only effect; inactive = flat fitted curve, though single readings scatter. No potency is given beside an inconclusive call; the fits are too rough.
# Assay: qHTS for Inhibitors of human tyrosyl-DNA phosphodiesterase 1 (TDP1): qHTS in cells in presence of CPT; note: nearly all actives have a fitted effect of over 55% in size
# Conditions: chicken DT40 Tdp1-/-;hTDP1 cells + 20 nM CPT, ATP luminescence, 48 h; activity change, negative = growth inhibition: at 46.2 µM (top of the series)
# Procedure, shortened: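 Chicken DT40 Tdp1-/- cells complemented with human TDP1, 400 cells/well, exposed to compounds plus 20 nM camptothecin for at least 48 h at 37 C; viability read as ATP content by CellTiter-Glo luminescence.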
# % is set by controls: 0 for no effect and ±100 for the full control effect; potency is the fitted concentration of half-maximal effect; tags give direction and shape of the fitted curve.
Compound,Potency,"activity change, negative = growth inhibition"
O=C(NCc1ccc(F)cc1)c1ccc2c(Cl)c3c(nc2c1)CCCC3,"inconclusive [inhibitor, single point]",
Cc1cc(C=O)c(C)n1-c1sc2c(c1C(=O)O)CCCC2,inactive,
CC(NC(=S)NNS(=O)(=O)c1cccc([N+](=O)[O-])c1)c1ccccc1 (stereo not drawn),inactive,
Fc1ccc(-c2noc3ncnc(N4CCN(c5ccccc5)CC4)c23)cc1,"inconclusive [inhibitor, single point]",
CC(C)N1CCc2c(sc(NC(=O)c3ccc(C(=O)c4ccccc4)cc3)c2C(N)=O)C1,"inconclusive [inhibitor, single point]",
CC(C)CC(N)c1csc(NC(=O)C(c2ccccc2)c2ccccc2)n1 (stereo not drawn),active: 18.4 µM,
Cn1c(=O)c(C(=O)c2ccc(S(C)(=O)=O)c(Cl)c2Cl)c(O)c2ccccc21,"inconclusive [inhibitor, single point]",
Cc1cn2c(=O)cc(COc3cccc(NC(=O)c4ccccc4C)c3)nc2s1,inactive,
COc1ccc(NC(=O)C2CCN(S(=O)(=O)c3ccc4[nH]c(=O)ccc4c3)CC2)c(OC)c1,inactive,
Cc1ccc(-n2c(SCC(=O)N/N=C/c3c(C)nn(-c4ccccc4)c3C)nc3ccccc3c2=O)cc1,active: 20.6 µM,
O=C(O)C1CC2C3CC(C(=O)O)C(C3)C2C1 (stereo not drawn),inactive,
CC1(NC(=O)CCc2nc3sc4c(c3c(=O)[nH]2)CCCC4)CCS(=O)(=O)C1 (stereo not drawn),inactive,
O=C(/C=C/c1c(Cl)cccc1Cl)NCc1ccco1,"inconclusive [inhibitor, partial curve]",
COc1ccc(OC)c(NC(=O)CCN2CC(C)CC(C)C2)c1 (stereo not drawn),inactive,
O=C(Nc1ccccc1N1CCOCC1)C1(c2ccc(Cl)cc2)CCC1,"inconclusive [inhibitor, single point]",
Cc1cccc2cc(-c3nc4c(C)cccn4c3NCc3ccco3)c(=O)[nH]c12,"inconclusive [inhibitor, single point]",
COc1cc2sc3cc(NCc4ccc5c(c4)OCO5)ccc3c(=O)c2cc1OC,"inconclusive [inhibitor, single point]",
CC(=O)N1CCOc2cc(S(=O)(=O)Nc3cccc(C(F)(F)F)c3)c(Cl)cc21,"inconclusive [inhibitor, single point]",
O=c1c2ccccc2[nH]c2ccc(F)cc12,active: 20.6 µM,
Cc1cc(C)cc(NC(=O)N2CCC(N3CCCCC3)CC2)c1,inactive,
CNc1nc(NCc2ccccc2)c2sccc2n1,active: 18.4 µM,
CN1CCN(CC(=O)Nc2ccc(Cl)cc2Cl)CC1,inactive,
O=C(Nc1ccc(Cl)cc1)Nc1nnc(CSCc2ccc(Cl)cc2)s1,active: 2.59 µM,
CCC(=O)c1cc(Br)ccc1OCC(=O)N1CCN(S(=O)(=O)c2ccccc2)CC1,"inconclusive [inhibitor, single point]",
Cc1cc(C)c2nc(-c3ccncc3)cc(C(=O)N3CCN(Cc4ccccc4Cl)CC3)c2c1,"inconclusive [inhibitor, single point]",

Compound,Potency,"activity change, negative = growth inhibition"
CCN(CC)c1ccc(NC(=O)c2ccco2)c(C)c1,"inconclusive [inhibitor, partial curve, poor fit]",
COc1ccc(OC)c(NC(=O)Cc2coc3ccc(C(C)C)cc23)c1,"inconclusive [inhibitor, single point]",
CC(=O)Nc1ccc(S(=O)(=O)N(Cc2ccccc2)C(C)C)cc1,active: 16.4 µM,
CC(=O)N1CC(C)Sc2ccc(S(=O)(=O)NCCc3cccc(C)c3)cc21 (stereo not drawn),"inconclusive [inhibitor, single point]",
CCC(C(=O)OC(C)C)c1ccc2ccccc2c1 (stereo not drawn),"inconclusive [inhibitor, single point]",
O=C(c1cc(-c2ccc(Cl)cc2Cl)on1)N1CCOCC1,"inconclusive [inhibitor, single point]",
Cc1ccc(O)c(C(CC(=O)NCC2(c3ccccc3)CCCC2)c2ccccc2)c1 (stereo not drawn),"inconclusive [inhibitor, single point]",
COc1ccccc1/C=N/NS(=O)(=O)c1ccccc1,inactive,
CC1(C)CC(N2CCN(CCO)CC2)=CC(=S)N1,inactive,
O=C(O)[C@@H]1C[C@@H](C(=O)O)N1,inactive,
CCOc1ccc(C(C(=O)NC2CCCCC2)N(C(=O)c2csnn2)C2CC2)cc1 (stereo not drawn),inactive,
CC1(C)CC2CC(C)(CN2C(=O)c2cc(-c3ccccc3O)on2)C1 (stereo not drawn),"inconclusive [inhibitor, single point]",
COc1cc(/C=C2\SC(N3CCCCC3)=NC2=O)cc(OC)c1OC,active: 20.6 µM,
CCOc1ccc(CNC(=O)C2CCN(c3nnc(-n4cccc4CNc4ccc(C)cc4)s3)CC2)cc1OC,"inconclusive [inhibitor, partial curve]",
O=C(NC1CCCCC1)C(c1ccc(-c2ccccc2)cc1)n1c(=O)c(-c2ccco2)nc2ccccc21 (stereo not drawn),"inconclusive [inhibitor, single point]",
CC(=O)Nc1cccc(NC(=O)Nc2cccc(Cl)c2C)c1,inactive,
COc1ccccc1C1CC(c2ccc(Cl)cc2)Nc2ncnn21 (stereo not drawn),active: 14.6 µM,
O=C(N/N=C/c1ccc(OC(=O)c2ccccc2)c([N+](=O)[O-])c1)c1ccc(O)cc1,"inconclusive [inhibitor, single point]",
CN=C1CC(SC)=C1c1ccc(C)cc1,active: 16.4 µM,
CN1CCN(C(=O)CCc2ccc(S(=O)(=O)NC3CCCCC3)cc2)CC1,inactive,
O=C(Nc1ccccc1N1CCCC1)c1ccccc1F,,inconclusive: -32% [inhibitor]
COc1ccc(/C=N/N=C2/NC(=O)C(CC(=O)O)S2)cc1OCc1ccc(Cl)cc1 (stereo not drawn),inactive,
CCn1cc(/C=C/C(=O)Nc2ccn(Cc3c(F)c(F)cc(F)c3F)n2)cn1,"inconclusive [inhibitor, single point]",
O=C1NCCCC1C(=O)N/N=C/c1ccccc1O (stereo not drawn),"inconclusive [inhibitor, single point]",
COc1ccc(-c2cc(C(F)F)n3ncc(C(=O)N4CCN(C(=O)c5ccco5)CC4)c3n2)cc1,"inconclusive [inhibitor, single point]",

Compound,Potency,"activity change, negative = growth inhibition"
CC(C)(C)n1nnnc1C(CCc1ccccc1)N1CCN(C/C=C/c2ccccc2)CC1 (stereo not drawn),"inconclusive [inhibitor, single point]",
CCOC(=O)c1c(SCCN2CCCC2)n(-c2ccccc2)c(=S)n(-c2ccccc2)c1=O,active: 4.61 µM,
CCOC(=O)C(C)Sc1ccc2nnc(-c3ccc(F)cc3)n2n1 (stereo not drawn),"inconclusive [inhibitor, single point]",
CC(C)(C)n1nnnc1C(c1cccs1)N(Cc1cccnc1)Cc1ccccc1Cl (stereo not drawn),"inconclusive [inhibitor, single point]",
CCCCCCCCCCCCCCCC[N+](C)(C)CCN(Cc1ccc(OC)cc1)c1ncccn1,active: 4.04 µM,
NC(=S)N/N=C/c1ccc(C23CC4CC(CC(C4)C2)C3)cc1,active: 9.2 µM,
COc1cccc(NC(=O)CN(C)C(=O)c2ccccc2-c2nc3ccccc3s2)c1,"inconclusive [inhibitor, single point]",
Cc1cccc(C)c1NC(=O)CCCn1nc(C)c2c(C)n(-c3ccccc3)nc2c1=O,inactive,
Brc1ccc2nc(C3CCCCC3)c(CC3CCCCC3)n2c1,"inconclusive [inhibitor, single point]",
Cc1cccc(C)c1NC(=O)CSC(=O)c1sc2ccccc2c1Cl,inactive,
Cc1cccc(C(=O)Nc2ccc(C(=O)c3ccncc3)cc2)c1,"inconclusive [inhibitor, single point]",
CC(C)c1ccc(NC(=O)c2cc3c(s2)-c2ccccc2SC3)cc1,active: 18.4 µM,
N#CC1=C(N)Oc2cc(O)ccc2C1c1ccccc1 (stereo not drawn),inactive,
Cc1cc(-c2nn(-c3ccccc3)cc2/C=C2\SC(N)=NC2=O)ccc1OC(C)C,"inconclusive [inhibitor, single point]",
Cc1cccc(-c2nc(S(=O)(=O)c3ccc(F)cc3)c(N3CCN(c4ccccc4)CC3)o2)c1,"inconclusive [inhibitor, partial curve, poor fit]",
CCOc1ccc(-c2cc(C(=O)NCCCN3CCOCC3)c3ccccc3n2)cc1,"inconclusive [inhibitor, single point]",
CCn1c(/C=C/c2cc(Br)ccc2O)nc2ccccc2c1=O,"inconclusive [inhibitor, single point]",
CC(C)C#Cc1ccc2c(c1)O[C@@H](CN(C)S(=O)(=O)c1cn(C)cn1)[C@@H](C)CN([C@H](C)CO)S2(=O)=O,"inconclusive [inhibitor, single point]",
C[C@@H]1CN([C@H](C)CO)C(=O)CCCn2nncc2CO[C@H]1CN(C)S(=O)(=O)c1ccccc1F,inactive,
CC(=O)Nc1ccc(S(=O)(=O)NC(C)C(=O)OCC(=O)Nc2ccc(F)cc2Cl)cc1 (stereo not drawn),inactive,
COc1cccc(CNc2nc3cc(-c4cccc(C(F)(F)F)c4)sc3c(=O)n2C)c1OC,"inconclusive [inhibitor, single point]",
O=C(NCCCN1CCN(c2ccccc2F)CC1)Nc1ccc(F)cc1,"inconclusive [inhibitor, single point]",
CCN(CC)S(=O)(=O)c1ccc(OC)c(NC(=O)c2cc([N+](=O)[O-])ccc2N2CCOCC2)c1,"inconclusive [inhibitor, single point]",
